Measurements from publication PMC4336329 (PLoS ONE, 2015).
Hit rate of the full screen: of about 310,000 compounds, about 14,000 (4.5%) showed an effect of 50% or more. The effect is printed as a negative number. The list shows a part of the results. Where a SMILES comes first, the peptide text is derived from it. The star is where a group is joined. Boc = CC(C)(C)OC(=O)*

Each compound was assayed against human ether-à-go-go-related gene (hERG) potassium channel (human, UniProt Q12809) (assay: primary screen, population patch clamp on CHO cells stably expressing hERG).
human ether-à-go-go-related gene (hERG) potassium channel, sequence (Q12809 whole entry, looked up): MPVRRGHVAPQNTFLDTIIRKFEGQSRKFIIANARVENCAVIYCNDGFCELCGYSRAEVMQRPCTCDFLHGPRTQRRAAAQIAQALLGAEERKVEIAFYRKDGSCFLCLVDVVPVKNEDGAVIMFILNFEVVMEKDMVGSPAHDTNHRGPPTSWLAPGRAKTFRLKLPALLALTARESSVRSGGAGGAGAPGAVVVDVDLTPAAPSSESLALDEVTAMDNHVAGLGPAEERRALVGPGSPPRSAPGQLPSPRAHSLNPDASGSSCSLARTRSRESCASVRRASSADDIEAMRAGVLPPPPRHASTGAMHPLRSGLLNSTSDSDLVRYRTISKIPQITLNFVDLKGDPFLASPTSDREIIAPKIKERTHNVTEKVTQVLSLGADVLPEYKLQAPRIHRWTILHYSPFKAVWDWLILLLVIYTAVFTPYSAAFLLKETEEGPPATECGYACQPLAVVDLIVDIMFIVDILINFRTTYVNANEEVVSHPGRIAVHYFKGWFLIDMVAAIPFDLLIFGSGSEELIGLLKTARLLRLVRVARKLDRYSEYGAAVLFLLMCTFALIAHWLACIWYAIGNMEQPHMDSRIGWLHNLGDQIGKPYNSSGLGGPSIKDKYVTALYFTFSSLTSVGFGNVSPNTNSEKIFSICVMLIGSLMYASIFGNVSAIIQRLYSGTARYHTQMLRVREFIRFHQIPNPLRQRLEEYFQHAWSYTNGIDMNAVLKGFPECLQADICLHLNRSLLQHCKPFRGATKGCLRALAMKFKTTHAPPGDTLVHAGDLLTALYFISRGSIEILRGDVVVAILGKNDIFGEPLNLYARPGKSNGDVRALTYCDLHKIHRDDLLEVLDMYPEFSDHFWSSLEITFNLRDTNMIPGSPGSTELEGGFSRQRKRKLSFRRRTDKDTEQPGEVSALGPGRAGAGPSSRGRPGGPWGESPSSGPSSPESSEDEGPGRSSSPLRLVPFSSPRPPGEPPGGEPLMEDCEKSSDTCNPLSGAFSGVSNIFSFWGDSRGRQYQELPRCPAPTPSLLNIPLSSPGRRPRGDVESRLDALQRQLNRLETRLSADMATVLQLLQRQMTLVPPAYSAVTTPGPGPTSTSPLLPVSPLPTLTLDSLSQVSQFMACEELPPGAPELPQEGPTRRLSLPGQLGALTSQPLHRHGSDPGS
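Note: peak tail current of the secondary pulse compared with the same well before compound.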

| SMILES | hERG current change (%, negative = inhibition) at 10uM [%] |
| --- | --- |
| COc1ccccc1CNC(=O)CCCn1nc(C)c2c(C)n(-c3ccccc3)nc2c1=O | -3.06 |
| COc1cc(NC(=O)C2CC(c3ccc(Cl)cc3)=NO2)cc(OC)c1OC (stereo not drawn) | 7.7 |
| Cc1cc(/C=C2\C(=O)NC(=O)N(Cc3ccccc3)C2=O)c(C)n1C1CC1 | 1.86 |
| Cc1ccnc(NC(c2ccccn2)c2c(C)[nH]c3ccccc23)c1 (stereo not drawn) | -16.2 |
| Cc1ccccc1/C=N/Nc1ccnc2cc(Cl)ccc12 | 1.57 |
| COC(=O)CNc1nc(Cl)nc(N2CCC(C)CC2)n1 | -1.04 |
| O=C(CCN1CCN(C(c2ccccc2)c2ccccc2)CC1)N/N=C/c1ccc(O)cc1 | -54.8 |
| O=C(CN(CC1CCCO1)C(=O)CNS(=O)(=O)c1ccc(F)cc1)NC1CCCCC1 (stereo not drawn) | -4.3 |
| COc1ccccc1CCNC(=O)CSc1nnc2ccc(-c3cccnc3)nn12 | -49.6 |
| CCOc1ccc(NC(=O)CCNC(=O)c2ccco2)cc1 | 6.08 |
| O=C(CSc1ccc(F)cc1)NCC1(N2CCOCC2)CCCCC1 | -24.2 |
| O=C(CN1CCOCC1)NNC(=O)c1ccc([N+](=O)[O-])cc1 | -4.4 |
| CCOc1ccccc1N(CC(=O)NCCOC)C(=O)CCC(=O)Nc1ccccn1 | 19.6 |
| Cc1ccc(C(=O)/C=C/Nc2ccc3c(c2)OCO3)cc1 | 15.9 |
| COc1ccccc1Nc1cc(C)nc2c(C)ccc([N+](=O)[O-])c12 | 4.23 |
| CC(C)Oc1ccc(C(CCN)C2CCCCC2)cc1.O=C(O)C(=O)O (stereo not drawn) | -8.37 |
| Cc1ccccc1N(C(=O)CNC(=O)c1ccco1)C(C(=O)NC1CCCC1)c1ccncc1 (stereo not drawn) | 13.1 |
| CCCCCCn1c(O)c(C=Nc2ccccc2N2CCOCC2)c(=O)[nH]c1=S | 13.6 |
| C=CCN(C(=O)Cn1c(C(=O)OC)cc2oc(C)cc21)c1ccccc1 | 3.14 |
| Cc1cc2ncn(-c3ncnc4scc(-c5ccccc5)c34)c2cc1C | -26.5 |
| O=C(CNC(=O)c1ccco1)Nc1ccc(S(=O)(=O)N2CCCC2)cc1 | 6.31 |
| CC(=O)Nc1ccc2oc(-c3ccccc3Br)nc2c1 | -3.6 |

| SMILES | hERG current change (%, negative = inhibition) at 10uM [%] |
| --- | --- |
| COc1ccc(/C=N/NC(=O)c2ccc(CSc3nc(C)cc(C)n3)cc2)cc1O | -31.2 |
| COc1ccc(/C(C)=N/NC(=O)CNC(=O)CCc2ccccc2)c(OC)c1 | 0.986 |
| O=C(Nc1ccccc1)c1cc([N+](=O)[O-])ccc1NC1CCCCC1 | -2.22 |
| CCOC(=O)c1cc(-c2csc(-c3ccc(C(F)(F)F)cc3)n2)on1 | 8.29 |
| NC(=O)c1c(NC(=O)c2ccccc2)sc2c1CCC2 | 18.5 |
| CC(C)C(=O)Nc1nc2ccc(S(C)(=O)=O)cc2s1 | 5.14 |
| Cc1[nH]nc(-c2ccc(OCc3cnn(-c4ccccc4)c3)cc2O)c1Oc1ccccc1F | 16.8 |
| O=Cc1c(Cl)nc2ccccn2c1=O | -4.27 |
| O=C(NCC(=O)N(CC1CCCO1)C(C(=O)NC1CCCCC1)c1cccnc1)c1cccs1 (stereo not drawn) | 16.2 |
| CCOC(=O)c1cn2nc(Oc3ccc(NC(C)=O)cc3)ccc2n1 | 7.29 |
| CC(C)(C)NC(=O)COC(=O)c1snc(C(=O)NC2CCCCC2)c1N | -0.566 |
| CCOc1ccc(N2C(=O)C(CC(=O)Nc3ccc(F)cc3)N(Cc3ccccn3)C2=S)cc1 (stereo not drawn) | -3.11 |
| O=c1[nH][nH]c(-c2ccccc2)c1C=Nc1ccc(F)cc1F | 3.31 |
| COc1cccc(/C=C/c2ccccn2)c1O | -6.31 |
| CN(C)N1C(N)=C(C#N)C(c2ccc(F)cc2)C2=C1CC(C)(C)CC2=O (stereo not drawn) | 9.29 |
| CCCN(CC(=O)Nc1ccccc1C)C(=O)Cc1cccs1 | 3.25 |
| COC(=O)c1c(C)[nH]c(C(=O)N2CCN(c3ccc(OC)cc3)CC2)c1C | 5.7 |
| COC(=O)c1cc(NC(=O)/C=C/c2ccc3c(c2)OCO3)cc(C(=O)OC)c1 | -3.81 |
| NCCN1CCN(CC(=O)N2c3ccccc3C(=O)Nc3cccnc32)CC1 | 10.7 |
| NNC(=O)c1[nH]c2ccc(Br)cc2c1-c1ccccc1 | -2.55 |
| COc1ccc(CN2CC(C(=O)NCCN3CCOCC3)CC2=O)cc1 (stereo not drawn) | 6.62 |
| CC(C)NC(=O)NC(=O)COc1ccc(Br)cc1Br | 4.33 |

| SMILES | hERG current change (%, negative = inhibition) at 10uM [%] |
| --- | --- |
| CC(C)C(=O)NCCc1c[nH]c2ccccc12 | 9.96 |
| COc1ccc(-c2nc(C#N)c(NCC3CCCO3)o2)cc1 (stereo not drawn) | -8.44 |
| Cc1ccc(NC(=O)/C(CN(C)C)=N\O)cc1 | 5.33 |
| CC(C)CC(NC(=O)C(NC(=O)C1CCC(=O)N1C(=O)OCc1ccccc1)C(C)C)C(=O)N1CCCC1C(N)=O (stereo not drawn) | 24.7 |
| NC(=O)CSc1nc2ccccc2n1Cc1ccccc1 | -8.74 |
| COc1ccc(NC(=S)NCc2ccc3c(c2)cc(C)n3C)cc1 | 5.5 |
| CSCCC(NC(=O)c1ccco1)C(=O)N1CC(C)OC(C)C1 (stereo not drawn) | -18.9 |
| Nc1ccc(C(=O)n2c3ccccc3c3ccccc32)cc1 | 18.8 |
| Oc1oc(-c2cccc3ccccc23)nc1/C=N/c1nccs1 | -2.84 |
| Cc1ccc(S(=O)(=O)N2c3ccccc3NC(=O)C2CC(=O)Nc2ccccc2)cc1 (stereo not drawn) | 6.45 |
| Cc1c(C(=O)OCC(=O)NCc2ccco2)oc2ccccc12 | 2.46 |
| O=C(C(Cc1ccccc1)n1cccc1)N1CCN(c2cccc(Cl)c2)CC1 (stereo not drawn) | -14.7 |
| COc1ccc(S(=O)(=O)N2CCN(Cc3ccc4c(c3)OCO4)CC2)c2ccccc12 | 8.89 |
| O=C(CSc1nnc(-c2cccnc2)n1-c1ccc(SC(F)F)cc1)N1CCCc2ccccc21 | -7.29 |
| O=C(OCC(=O)N1CCC(c2ccccc2)=N1)c1ccc([N+](=O)[O-])s1 | -34.7 |
| O=C(Nc1ccc(NC(=O)c2ccco2)c(Cl)c1)c1ccccc1 | -4.14 |
| Cc1cc(N2CCCCC2)nc2c(C)cccc12 | 15 |
| Cl.Fc1ccc(Nc2nc(N3CCOCC3)nc(N3CCOCC3)n2)cc1Cl | 7.95 |
| O=C(CSc1nnc(CNC(=O)c2ccccc2F)o1)NC1CCCC1 | 10.7 |
| Cc1ccc(S(=O)(=O)N(C)c2ccc(OCC(=O)Nc3cccc(-n4cnnn4)c3C)cc2)cc1 | -32.1 |
| COc1ccc(OC)c2[nH]c(=O)c(CCNS(=O)(=O)c3ccc(Cl)cc3)cc12 | -25.4 |
| CCC(C)N(C(=O)COc1ccccc1C#N)C1CCS(=O)(=O)C1 (stereo not drawn) | -4.56 |

| SMILES | hERG current change (%, negative = inhibition) at 10uM [%] |
| --- | --- |
| Br.Fc1cccc(CNCc2ccc3c(c2)OCO3)c1 | 1.44 |
| CCCc1nc2c(=O)n(C)c(=O)[nH]c2n1C | 4.79 |
| CCCNC(=S)N1CCC(n2cnc3ccccc32)CC1 | -36.4 |
| CCCNc1nc2c(c(=O)n(C)c(=O)n2C)n1Cc1ccc(F)cc1 | -12.8 |
| COC(=O)C1=C(C)N(C)C(=S)N(C)C1c1cccc(Br)c1 (stereo not drawn) | -14.3 |
| Oc1cccc(/C=C/c2ccc3cccc(O)c3n2)c1 | 17.2 |
| FC(F)(F)c1ccc(C2[C@H]3CN(CC4CCCCC4)[C@H](c4ccccc4)C34CC2(c2cccnc2)C4)cc1 (stereo partly drawn) | 0.391 |
| CCC(C)C(NC(=O)OC(C)(C)C)C(=O)NC(C(=O)NC(C)C(N)=O)C(C)C (stereo not drawn) (Boc-Ile-Val-Ala-NH2; configuration not given here) | 24.3 |
| CC(C)c1ccc(OCC(O)CNC(C)c2ccccc2)cc1.Cl (stereo not drawn) | -65.3 |
| N#CC1=C(N)Oc2n[nH]c(-c3cccs3)c2C1C1C=CCCC1 (stereo not drawn) | 8.52 |
| O=C(COC(=O)CNC(=O)c1ccccc1F)NCC(F)(F)F | 9.36 |
| Cc1ncoc1C(=O)Nc1cccc(Cl)c1 | -7.91 |
| COC(=O)c1ccc2c(=O)n(Cc3ccc4c(c3)OCO4)c(SCC(=O)N3CCCC3)nc2c1 | -52.4 |
| O=C(CC(=O)c1c(F)cccc1Cl)c1ccccc1O | 6.51 |
| COc1cc(C(=O)Oc2cc(C)cc(C)c2)cc(OC)c1OC | 30.3 |
| CN(C)Cc1cc(CN(C)C)c(O)c(CCc2ccccc2)n1.Cl | 10.8 |
| Cc1cccc(N2CCN(C(=O)CSc3ccsc3[N+](=O)[O-])CC2C)c1 (stereo not drawn) | -10.8 |
| O=C(O)c1ccc(NC(=S)NC(=O)c2ccc(-c3ccccc3)cc2)cc1 | 19.4 |
| O=[N+]([O-])c1ccc(O)c(C=Nc2ccc3c(c2)OCCO3)c1 | 6.23 |
| CCC(NS(=O)(=O)c1ccc(C)cc1)C(=O)N1CCN(c2ccccn2)CC1 (stereo not drawn) | -6.59 |
| O=C(O)c1cc2ccccc2n1-c1ccccc1 | 9.57 |
